According to PubChem BioAssay AID1347165 (National Center for Advancing Translational Sciences (NCATS), 2019):
Where “and” joins values, the source holds several entries; their conditions need not be identical. Equal entries are not always repeated. Screen size: about 220,000 compounds; about 5,700 (2.6%) were called active. The inconclusive results got no clear call from the source; some entries with a clear call stand among them for comparison. Calls come from the whole dose curve; as a rule, active = well fitted inhibition curve with a large enough effect; inconclusive = small, poorly fitted or top-dose-only effect; inactive = no such curve, though single readings can be large or run the other way. Potencies beside an inconclusive call are fits to weak or partial responses and may not hold up.

Molecular target: Lysine-specific demethylase 5B (Homo sapiens) (UniProt Q9UGL1)
Test: Primary screen for KDM5B Histone Demethylases FDH-coupled qHTS; note: nearly all actives have a fitted effect of over 70% in size; for activity change, negative = inhibition: 0% is about no effect
Conditions: FDH-coupled NADH fluorescence (FDH is formaldehyde dehydrogenase); activity change, negative = inhibition: at 57.7 µM (top of the series) unless noted
Outline: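 KDM5BΔAP (200 nM final) in 50 mM HEPES pH 7.5, 0.01% Tween-20 was preincubated 10 min at RT with compound over a concentration range. Substrate mix (H3K4me3 12.5 µM, α-KG 25 µM, Fe²⁺, ascorbate, NAD⁺, FDH) was added, and NADH fluorescence change over 30 min gave dose-response curves.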
Potency is the fitted concentration of half-maximal effect; tags give direction and shape of the fitted curve.

Sequence of UniProt Q9UGL1 (Q9UGL1 whole entry, looked up): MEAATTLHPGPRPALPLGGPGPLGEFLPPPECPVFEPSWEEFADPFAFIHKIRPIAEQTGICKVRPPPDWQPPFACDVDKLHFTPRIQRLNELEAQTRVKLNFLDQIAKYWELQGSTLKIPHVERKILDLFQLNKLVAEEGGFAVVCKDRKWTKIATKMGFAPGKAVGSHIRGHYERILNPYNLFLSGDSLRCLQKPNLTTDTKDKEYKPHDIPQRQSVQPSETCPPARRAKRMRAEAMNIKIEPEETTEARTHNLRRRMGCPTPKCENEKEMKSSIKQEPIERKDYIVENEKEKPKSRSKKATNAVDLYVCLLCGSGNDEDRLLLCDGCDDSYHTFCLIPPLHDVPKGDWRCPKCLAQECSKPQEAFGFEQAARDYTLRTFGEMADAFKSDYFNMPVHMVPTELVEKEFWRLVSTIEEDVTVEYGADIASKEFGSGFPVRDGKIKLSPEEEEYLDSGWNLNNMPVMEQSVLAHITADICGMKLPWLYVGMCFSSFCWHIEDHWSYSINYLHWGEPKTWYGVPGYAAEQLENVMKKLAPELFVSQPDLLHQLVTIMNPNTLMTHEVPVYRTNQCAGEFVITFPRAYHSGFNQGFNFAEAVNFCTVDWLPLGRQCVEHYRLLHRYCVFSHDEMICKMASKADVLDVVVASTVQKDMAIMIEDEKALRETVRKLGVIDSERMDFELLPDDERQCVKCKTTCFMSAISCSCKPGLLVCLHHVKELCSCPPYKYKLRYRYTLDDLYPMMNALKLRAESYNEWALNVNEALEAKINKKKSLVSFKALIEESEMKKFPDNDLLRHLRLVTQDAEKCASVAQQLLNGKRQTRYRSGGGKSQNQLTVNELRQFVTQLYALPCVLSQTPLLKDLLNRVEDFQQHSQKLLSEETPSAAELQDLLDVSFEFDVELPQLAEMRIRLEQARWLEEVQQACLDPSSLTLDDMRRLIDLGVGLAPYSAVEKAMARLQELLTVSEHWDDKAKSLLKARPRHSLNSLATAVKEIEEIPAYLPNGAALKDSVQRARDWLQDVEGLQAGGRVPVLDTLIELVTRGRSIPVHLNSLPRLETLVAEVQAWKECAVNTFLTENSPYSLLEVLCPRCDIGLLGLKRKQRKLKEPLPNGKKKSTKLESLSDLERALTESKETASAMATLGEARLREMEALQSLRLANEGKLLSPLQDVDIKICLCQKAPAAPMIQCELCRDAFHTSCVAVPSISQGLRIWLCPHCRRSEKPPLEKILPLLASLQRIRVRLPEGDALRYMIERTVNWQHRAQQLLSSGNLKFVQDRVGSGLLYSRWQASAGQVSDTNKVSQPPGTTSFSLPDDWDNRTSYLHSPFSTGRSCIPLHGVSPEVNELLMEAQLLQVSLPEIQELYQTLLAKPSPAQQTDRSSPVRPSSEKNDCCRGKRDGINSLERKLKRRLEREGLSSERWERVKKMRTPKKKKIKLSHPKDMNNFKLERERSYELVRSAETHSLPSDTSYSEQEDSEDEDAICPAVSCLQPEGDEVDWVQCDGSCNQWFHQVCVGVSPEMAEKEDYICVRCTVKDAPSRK

SMILES | Potency | activity change, negative = inhibition
Cc1cc(C(F)(F)F)nn1CC(=O)N1CCN2CCS(=O)(=O)N(C3CC3)C(=O)C2C1 (configuration not stated) | inconclusive: 25.1 µM [inhibitor, single point] | 
Cc1cc(=O)n(CC(=O)Nc2ccc(C(F)(F)F)cc2)c(N2CCc3ccccc3C2)n1 | inactive | 
C=CCN(Cc1cccs1)C(=O)c1ccncc1 | inactive | 
CCOc1ccc(CC(=O)N2CCC(C3CCNC3)CC2)cc1OCC (configuration not stated) | inconclusive: 22.4 µM [inhibitor, partial curve, poor fit] | 
CCOCCCNc1oc(/C=C/c2ccc(OC)c(OC)c2)nc1C#N | inconclusive: 22.4 µM [inhibitor, partial curve, poor fit] | 
Cc1ccc(NC(=O)CN2C(=O)c3cccnc3Sc3ccccc32)cc1C | inconclusive: 39.8 µM [inhibitor, single point] | 
CCCSc1ncc(Cl)c(C(=O)Nc2ccc(S(=O)(=O)N3CCCC(C)C3)cc2)n1 (configuration not stated) | inconclusive: 22.4 µM [inhibitor, partial curve, poor fit] | 
Cc1ccc(C(=O)N2CCCCCCNC(=O)[C@@H]3CCCC[C@@H]32)c(=O)[nH]1 | inconclusive: 28.2 µM [inhibitor, partial curve, poor fit] | 
O=C(Nc1nc2c(F)cccc2s1)c1ccc(S(=O)(=O)N2CCOCC2)cc1 | inconclusive: 39.8 µM [inhibitor, single point] | 
O=C(/C(=C/c1cccc(O)c1)c1nc2ccccc2s1)c1ccccc1 | inconclusive: 25.1 µM [inhibitor, partial curve, poor fit] | 
CC(=O)c1cccc(NC(=O)c2sc3nc(-c4ccc(F)cc4)cn3c2C)c1 | inactive | 
O=C(c1cccnc1)N1CCC2(CC1)N=C(c1ccc(Cl)cc1)NO2 | inconclusive: 25.1 µM [inhibitor, partial curve] | 
CCC(C)(C)C(=O)N1CCC(N2C(=O)CCC2C(=O)NCc2ccccc2)CC1 (configuration not stated) | inactive | 
CN1CCC(CN2CCC(c3nn(C)c(=O)n3-c3ccccc3)CC2)CC1 | inconclusive: 17.8 µM [inhibitor, partial curve, poor fit] | 
COc1ccc(Nc2ccc(NC(=O)Cn3cnc4c3c(=O)n(C)c(=O)n4C)cc2)cc1 | inactive | 
CNC(=O)CCn1ncc2cc(OC3CCc4cccc(-c5ccc(O)c(F)c5)c43)ccc21 (configuration not stated) | inconclusive: 28.2 µM [inhibitor, single point] | 
O=C(Nc1cccc(F)c1)N1CCN(Cc2ccc(Cl)s2)CC1 | inactive | 
COc1ccc(-c2cn3cccnc3n2)cc1NS(=O)(=O)c1ccc(C)cc1 | inconclusive: 22.4 µM [inhibitor, partial curve, poor fit] | 
CN(C)C1CCN(C(=O)C2(N(C)CCc3ccccc3)Cc3ccccc3C2)C1 (configuration not stated) | inconclusive: 6.31 µM [inhibitor, partial curve] | 
CCCn1cc(-c2ccncc2)cc1C(=O)NCc1ccc(OC)cc1 | inconclusive: 25.1 µM [inhibitor, partial curve, poor fit] | 
CC1(C)OC(=CC=Nc2ccc(Cl)cc2)OC1(C)C | inconclusive: 39.8 µM [inhibitor, single point] | 
NCc1ccccc1OC(F)(F)F | inactive | 
CCOC(=O)Cc1cc(C(=O)Nc2ccc(Br)cc2)sc1-c1ccc(C)cc1 | inconclusive: 31.6 µM [inhibitor, partial curve, poor fit] | 

SMILES | Potency | activity change, negative = inhibition
c1cnc2nc(C3CCNC3)[nH]c2c1 (configuration not stated) | inconclusive: 141 µM [inhibitor, partial curve, poor fit] and inconclusive: 35.5 µM [inhibitor, single point] | 
CCc1ccc(CNc2ncc(-c3cccc(OC)c3)n2C)cc1 | inconclusive: 12.6 µM [inhibitor, partial curve, poor fit] | 
CCOCCCn1c(=N)c(C(=O)NC(C)c2ccccc2)cc2c(=O)n3cc(C)ccc3nc21 (configuration not stated) | inconclusive: 1.41 µM [inhibitor, partial curve, poor fit] | 
C#CCNC(=O)c1cc(-c2ccccc2OC)nc2c1cnn2C | inconclusive: 89.1 µM [inhibitor, partial curve, poor fit] | 
Cc1nn(C)c(C)c1CC(=O)Nc1nc(-c2ccc(F)cc2)c(C)s1 | inactive | 
COc1ccc(-c2nc3c(c(=O)[nH]2)CCN(C(=O)Cc2ccsc2)C3)cc1 | inconclusive: 22.4 µM [inhibitor, single point] | 
CCCn1c2ccccc2c2cnn(CC(=O)NCCOC)c(=O)c21 | inconclusive: 28.2 µM [inhibitor, partial curve, poor fit] | 
Cc1nnc(SCC(=O)c2ccc(F)c(F)c2)n1Cc1ccccc1 | inactive | 
CCN(CC)C(=O)c1cccc(-c2ccc(OCCn3ccnc3)cc2)c1 | inconclusive: 25.1 µM [inhibitor, single point] | 
C=CCNC(=O)CN1CCN(C(=O)Cn2c(C)cc3ccccc32)CC1 | inconclusive: 39.8 µM [inhibitor, single point] | 
CCCCc1ccc(NC(=S)NCCc2ccc(Cl)cc2)cc1 | inactive | 
CC(C)CCn1c(=O)c2cccnc2n(CC(=O)Nc2ccccc2)c1=O | inconclusive: 35.5 µM [inhibitor, single point] | 
Cc1oc(-c2ccc(C(=O)NCCC(C)C)cc2)nc1CS(=O)(=O)c1ccccc1 | inconclusive: 3.98 µM [inhibitor, full curve, poor fit] | 
Cn1c(Cl)cnc1COC(=O)CC12CC3CC(CC(Br)(C3)C1)C2 | inactive | 
Fc1ccccc1NC(=S)N(Cc1ccccc1)Cc1ccccc1 | inactive | 
CC1CCCCC1NC(=O)c1cc2c(Cl)nc3ccccc3c2s1 (configuration not stated) | inactive | 
COc1ccccc1C1(CCN=Cc2ccc(N(C)C)cc2)CCOC(C)(C)C1 (configuration not stated) | inconclusive: 1.78 µM [inhibitor, full curve, poor fit] | 
CC1CCN(S(=O)(=O)c2ccc3c(c2)CCN3C(=O)Nc2cccc(Br)c2)CC1 | inactive | 
Cc1ccccc1-n1c(SC(C)C(=O)c2ccc(Cl)cc2)nnc1N1CCOCC1 (configuration not stated) | inactive | 
Cc1ccc(S(=O)(=O)NC2(C(F)(F)F)NC(=O)N(c3ccc(F)cc3)C2=O)cc1 (configuration not stated) | inconclusive: 10 µM [inhibitor, partial curve, poor fit] | 
Cc1cccc(NC(=O)CN2C(=O)N/C(=C\c3ccc(-c4cccc(C(=O)O)c4)o3)C2=O)c1 | inconclusive: 39.8 µM [inhibitor, partial curve, poor fit] | 
OCc1ccc(CN2C[C@H](O)C[C@H]2c2nc(-c3ccc(F)cc3)no2)o1 | inconclusive: 31.6 µM [inhibitor, partial curve] | 
COc1ccc(C(=O)Nc2ccc(NC(=O)c3cccs3)cc2)cc1OC | inconclusive: 1.78 µM [inhibitor, partial curve, poor fit] | 

SMILES | Potency | activity change, negative = inhibition
CCc1ccc(-c2cc(C(F)F)n3ncc(C#N)c3n2)cc1 | inconclusive: 14.1 µM [inhibitor, partial curve, poor fit] | 
COCCN1Cc2nc(Nc3ccc(C(F)(F)F)cc3)ccc2OCC1=O | active: 25.1 µM | 
CCCn1c(C2NC(=O)NC(C)=C2C(=O)OCc2ccccc2)nc2ccccc21 (configuration not stated) | inactive | 
COc1ccc(OC)c(NC(=O)Cn2ccc3ccccc32)c1 | inactive | 
Cc1ccc(NC(=O)N2CC3CCCN3c3ccccc32)cc1C (configuration not stated) | inconclusive: 28.2 µM [inhibitor, partial curve, poor fit] | 
N#Cc1nc(/C=C/c2cccs2)oc1N1CCC(C(N)=O)CC1 | inconclusive: 25.1 µM [inhibitor, partial curve, poor fit] | 
Cn1ccc(C(=O)NC(=S)N2CCSCC2)n1 | inconclusive: 1.78 µM [inhibitor, full curve, poor fit] | 
O=C1Nc2ccc(-c3ccc(Cl)cc3)cc2C(=O)N2CCN(C(=O)NC3CCCCC3)C[C@H]12 | inactive | 
O=C(c1cn(CCc2ccccc2)nn1)N1CCC(OCc2ccccn2)CC1 | inconclusive: 6.31 µM [inhibitor, partial curve] | 
CC1=C[C@@H](CNC(=O)CC(C)(C)C)[C@H](C(C)C)C[C@H]1CC(=O)O | active: 28.2 µM | 
Cc1cccc(NC(=O)COc2ncnc3ccc(Br)cc23)c1 | inactive | 
O=C(N1CCC2(CC1)CC(N(Cc1ccccc1)C1CC1)CCO2)C1(c2ccccc2)CC1 (configuration not stated) | inactive | 
Cc1ccc(C(=O)NCc2cccnc2Oc2ccccc2F)c(=O)n1C | active: 28.2 µM | 
Cn1nnnc1-c1cccc(NCC(=O)NC2(C#N)CCCCC2)c1 | inactive | 
CCCOC(=O)c1cc(-c2ccc(OC)cc2)nc2ccccc12 | inconclusive: 20 µM [inhibitor, partial curve, poor fit] | 
N#CC1CCN(C(=O)c2cc(Br)cn3ccnc23)CC1 | active: 35.5 µM and active: 39.8 µM | 
CC(C)(C)N(Cc1ccccc1)C(=O)COC(=O)/C=C/c1ccc2c(c1)OCO2 | inconclusive: 28.2 µM [inhibitor, partial curve, poor fit] | 
O=C(O)CO[C@@H]1COCC[C@H]1NC(=O)c1ccccc1-c1ncn[nH]1 | inactive | 
CCOC(=O)CCc1c(C)c2ccc(OCC(=O)C(C)(C)C)c(C)c2oc1=O | inconclusive: 17.8 µM [inhibitor, partial curve, poor fit] | 
COc1ccc(-c2cc(C(F)(F)F)n3nc(C(=O)Nc4cc(C(F)(F)F)ccc4Cl)cc3n2)cc1OC |  | inconclusive: -30.7% [inhibitor]
COc1ccc(CN2C(=O)COC[C@@H]2[C@H](O)c2ccc(NC(=O)CC(C)(C)C)cc2)cc1 | inactive | 
